# Assay results reported in PubChem BioAssay AID624296 (National Center for Advancing Translational Sciences (NCATS), 2012).
# Values joined by “and” are separate entries in the source; they are usually repeats but may differ in a detail not shown here. Equal entries are not always repeated. Out of some 350,000 compounds screened, about 9,900 (2.8%) were called active. The shares of active, inactive and inconclusive entries below differ from those in the screen. Calls come from the whole dose curve; as a rule, active = well fitted activation curve with a large enough effect; inconclusive = small, poorly fitted or top-dose-only effect; inactive = no such curve, though single readings can be large or run the other way. Where the call is inconclusive, the potency comes from a doubtful curve fit.
# Assay: A quantitative high throughput screen for small molecules that induce DNA re-replication in MCF 10a normal breast cells. Note: nearly all actives have a fitted effect of over 50% in size.
# Settings: MCF 10A DNA re-replication, Hoechst nuclear intensity, 48 h; series mostly up to 46.1 µM
# Potency is the fitted concentration of half-maximal effect; tags give direction and shape of the fitted curve.
row,Structure (SMILES),Potency
1,CC(C)c1nc(C(=O)N2CCCC(N3CCN(c4cccc(Cl)c4)CC3)C2)cs1 (centres undefined),"inconclusive: 20.6 µM [activator, single point]"
2,O=C(COC(=O)c1cc(-c2ccc(F)cc2)nc2ccccc12)NCC1CCCO1 (centres undefined),inactive
3,O=C(O)CSc1nnc(-c2cccc(S(=O)(=O)N3CCCCC3)c2)o1,"inconclusive: 25.9 µM [activator, partial curve, poor fit]"
4,COCCOC(=O)c1[nH]c2c(c1C)C(=O)CC(c1cc(OC)ccc1OC)C2 (centres undefined),"inconclusive: 3.26 µM [activator, full curve, poor fit]"
5,O=C1OCCC1S(=O)(=O)c1ccc2ccccc2c1 (centres undefined),inactive
6,CCc1ccc2nc(N(CCCN(C)C)C(=O)c3ccc(S(=O)(=O)N4CCCC4)cc3)sc2c1,"inconclusive: 23.1 µM [activator, single point]"
7,O=C(O)CCc1ccc(-c2ccccc2)n1-c1cccc(O)c1,"inconclusive: 23.1 µM [activator, single point]"
8,COc1cc2c(c3oc(-c4ccccc4)cc(=O)c13)C=CC(C)(C)O2,"inconclusive: 29.1 µM [activator, single point]"
9,C/C(N)=C(/C#N)C(=O)COC(=O)c1cc(C)n(-c2ccc(F)cc2)c1C,"inconclusive: 11.6 µM [activator, partial curve, poor fit] and inconclusive: 29.1 µM [activator, single point]"
10,OCC1CCCCN1C(=S)Nc1ccc(Cl)cc1Cl (centres undefined),active: 0.82 µM
11,C(=C\c1ccccc1)/C=N/Nc1nc2ccccc2s1,inactive
12,COc1ccccc1NC(=O)CCSc1ccc(C)cc1,"inconclusive: 16.4 µM [activator, partial curve, poor fit]"
13,CCOC(=O)c1cc2occc2n1CC(=O)N1CCCc2ccccc21,inactive
14,COc1ccc(CCN=C(NS(=O)(=O)c2ccc(Cl)cc2)c2ccccc2)cc1,"inconclusive: 20.6 µM [activator, partial curve, poor fit]"
15,CC(=O)Nc1ccc(SC[C@H](Cc2ccccc2)N2CC[C@@H](C(C)(C)C)CCC2=O)cc1,"inconclusive: 29.1 µM [activator, single point]"
16,C[C@@H]1NC(=O)[C@@]2(C)[C@@H](c3ccccc3)[C@H]3COc4ccc(Cl)cc4[C@@H]3N2C1=O,"inconclusive: 11.6 µM [activator, partial curve, poor fit]"
17,CCOC(=O)c1ccc(N2C(=O)C(C)=C(C)C2=O)cc1,inactive
18,O=C(Cc1cccs1)Nc1cccc(-c2nc3cc4ccccc4cc3[nH]2)c1,"inconclusive: 20.6 µM [activator, single point]"
19,Cc1cccc(NC(=O)C[n+]2ccc(N(C)C)cc2)c1,"inconclusive: 23.1 µM [activator, partial curve, poor fit]"
20,CC(C)N1CCN(Cc2ccc(OC3CCCC3)cc2)CC1CCO (centres undefined),active: 4.61 µM
21,CCN(Cc1ccc2c(c1)OCCO2)C(=O)CSc1nc(C)nc2sc(C)c(C)c12,"inconclusive: 25.9 µM [activator, single point]"
22,O=C(COC(=O)C12CC3CC(CC(Cl)(C3)C1)C2)Nc1ccccc1,inactive

row,Structure (SMILES),Potency
1,CCOC(=O)C1=C(N)n2c(s/c(=C\c3cccs3)c2=O)=C(C(=O)OCC)C1c1cccs1 (centres undefined),"inconclusive: 7.31 µM [activator, partial curve, poor fit]"
2,C(=N\c1nc2ccccc2n1CCN1CCCCC1)/c1ccc2c(c1)OCO2,"inconclusive: 0.316 µM [activator, full curve, poor fit]"
3,Cc1ccc(CSCC(=O)N2CCCC2)cc1,"inconclusive: 29.1 µM [activator, single point]"
4,FC(F)Oc1ccc(-c2csc(NNC3=NCCCCC3)n2)cc1,"inconclusive: 23.1 µM [activator, single point]"
5,CCOC(=O)c1ccc(Oc2cc(C)nc(Cl)n2)cc1,"inconclusive: 2.59 µM [activator, single point]"
6,CN(CC(=O)Nc1ccccc1Oc1ccccc1)Cc1ccccc1F,active: 8.2 µM
7,Cc1n[nH]c(C)c1S(=O)(=O)N1CCCC(C(=O)N2CCc3ccccc32)C1 (centres undefined),"inconclusive: 18.4 µM [activator, single point]"
8,CCCCN(CC)CCNC(=O)c1cc2c(-c3ccc(Cl)cc3)nn(C)c2s1,active: 18.4 µM
9,Cc1c(NCc2cc(Cl)cc(Cl)c2O)c(=O)n(-c2ccccc2)n1C,"inconclusive: 20.6 µM [activator, partial curve, poor fit]"
10,CC(=O)Nc1ccc(NC(=O)[C@H](C)NC(=O)c2ccco2)cc1,inactive
11,O=c1ccc(S(=O)(=O)N2CCCC2)cn1Cc1nc(-c2ccc(F)cc2)no1,"inconclusive: 18.4 µM [activator, partial curve, poor fit]"
12,Nc1ncnc2c1ncn2[C@@H]1O[C@H](CNCc2cccc(C#Cc3ccccc3)c2)[C@@H](O)[C@H]1O,inactive
13,O=C(Cc1cccc(NC(=O)C2CCN(C(=O)c3ccccc3)CC2)c1)Nc1cccc(C(=O)N2CCOCC2)c1,"inconclusive: 25.9 µM [activator, single point]"
14,O=c1c2ccccc2nc(/C=C/c2cccc([N+](=O)[O-])c2)n1CCO,inactive
15,OC(COc1cccc2ccccc12)CN1CCOCC1 (centres undefined),inactive
16,COc1ccc(C(=O)COc2ccc(C(C)=O)cc2OC)cc1OC,inactive
17,Cc1ccc(CSc2sc(C(=O)c3ccccc3)c(N)c2C#N)cc1,"inconclusive: 5.8 µM [activator, full curve]"
18,Cc1ccc(NC(=O)Cc2nnc(SCC(=O)NC3CCCC3)n2C)c(C)c1,inactive
19,COC(=O)/C(=C\Nc1ccc(Cl)cc1Cl)NC(=O)c1ccc(OC)cc1,active: 18.4 µM
20,Cc1ccc(S(=O)(=O)NCCC(c2ccc(F)cc2)c2ccco2)cc1 (centres undefined),"inconclusive: 29.1 µM [activator, single point]"
21,COc1ccc(CN2CCCC(C(=O)N3CCc4ccccc4C3)C2)cc1OC (centres undefined),inactive
22,CCC1CCCCN1C(=S)NC(=O)c1ccc([N+](=O)[O-])cc1 (centres undefined),"inconclusive: 16.4 µM [activator, single point]"
